This is one part of the list. Single values are uncertain, as repeats are few or missing.
How the values were obtained:
Assay in all cases: cell count relative to DMSO control; melanoma cells; higher = more viable cells
Conditions in all cases: library dose: standard library concentration; 72 h; first compound 2 µM
G361 = system: G361
IPC-298 = system: IPC-298
IST-MEL1 = system: IST-MEL1
LB2518-MEL = system: LB2518-MEL
LOXIMVI = system: LOXIMVI
MEL-HO = system: MEL-HO
MZ2-MEL = system: MZ2-MEL
MeWo = system: MeWo
RPMI7951 = system: RPMI7951
RVH-421 = system: RVH-421
SkMel28 = system: SkMel28
SkMel2 = system: SkMel2
SkMel30 = system: SkMel30
SkMel5 = system: SkMel5
UACC257 = system: UACC257
UACC62 = system: UACC62
WM115 = system: WM115
WM1716 = system: WM1716
WM1745 = system: WM1745
WM3526 = system: WM3526
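Further: cells treated in 1,536-well plates, then fixed and DAPI-stained, with nuclei counted from automated high-throughput microscope images.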

SMILES	cell count (G361) [%]	cell count (IPC-298) [%]	cell count (IST-MEL1) [%]	cell count (LB2518-MEL) [%]	cell count (LOXIMVI) [%]	cell count (MEL-HO) [%]	cell count (MZ2-MEL) [%]	cell count (MeWo) [%]	cell count (RPMI7951) [%]	cell count (RVH-421) [%]	cell count (SkMel28) [%]	cell count (SkMel2) [%]	cell count (SkMel30) [%]	cell count (SkMel5) [%]	cell count (UACC257) [%]	cell count (UACC62) [%]	cell count (WM115) [%]	cell count (WM1716) [%]	cell count (WM1745) [%]	cell count (WM3526) [%]
CCCCCCCCCCCCCCCCCCOP(=O)([O-])OC1CC[N+](C)(C)CC1 [Perifosine] + Nc1cccc2c1CN(C1CCC(=O)NC1=O)C2=O [lenalidomide] (partner dose 5 µM)	88	97.6	108	105	72.3	101	110	105	46.5	88.1	62.4	82.4	93.3	109	83.2	66.8	88.5	85.3	110	76.7
C[C@@H](N)c1ccc(C(=O)Nc2ccnc3[nH]ccc23)cc1 + COc1ccc(C2=N[C@@H](c3ccc(Cl)cc3)[C@@H](c3ccc(Cl)cc3)N2C(=O)N2CCNC(=O)C2)c(OC(C)C)c1 [Nutlin-3] (partner dose 0.5 µM)	69.1	103	83.4	109	68.9	57.1	57.1	83.3	65.9	53.6	59	100	102	56	55.3	47.6	97.9	48.7	38.4	107
C[C@@H](N)c1ccc(C(=O)Nc2ccnc3[nH]ccc23)cc1 + OCCn1cc(-c2cnc3nnn(Cc4ccc5ncccc5c4)c3n2)cn1 [PF04217903] (partner dose 5 µM)	77	91.5	82.4	77.8	84.9	77.2	66.3	76.4	61.9	34.6	93.3	116	97.4	62.9	70.1	79.5	94.1	53.9	49	119
CCCCCCCCCCCCCCCCCCOP(=O)([O-])OC1CC[N+](C)(C)CC1 [Perifosine] + C=CCn1c(=O)c2cnc(Nc3ccc(N4CCN(C)CC4)cc3)nc2n1-c1cccc(C(C)(C)O)n1 [MK1775] (partner dose 0.1 µM)	93.6	76.7	83.2	52.7	62.9	83.6	96.7	76.7	25.1	76.6	31.7	68.7	64.1	48.4	84.1	66.6	74.4	81.8	37.3	78.7
CCCCCCCCCCCCCCCCCCOP(=O)([O-])OC1CC[N+](C)(C)CC1 [Perifosine] + CC(=O)O[C@@]12CO[C@@H]1C[C@H](O)[C@@]1(C)C(=O)[C@H](O)C3=C(C)[C@@H](OC(=O)[C@H](O)[C@@H](NC(=O)OC(C)(C)C)c4ccccc4)C[C@@](O)([C@@H](OC(=O)c4ccccc4)[C@H]21)C3(C)C [Docetaxel] (partner dose 0.0005 µM)	20.1	57.4	36.1	59.9	59	39.5	57.5	32.5	7.51	77.1	30.4	34.9	50.2	41.3	72.3	60.1	37.6	39.8	45.6	45.8
Cn1sc(=O)n(Cc2ccccc2)c1=O + CN1CCN(c2ccc3nc(-c4c(N)c5c(F)cccc5[nH]c4=O)[nH]c3c2)CC1 [Dovitinib] (partner dose 0.5 µM)	64	65.3	79.4	38.4	107	76.8	42.1	47.8	101	88.1	35.9	62	84.7	56.7	85.6	66.3	53.1	88.3	64.3	63.2
CCCCCCCCCCCCCCCCCCOP(=O)([O-])OC1CC[N+](C)(C)CC1 [Perifosine] + OCCn1cc(-c2cnc3nnn(Cc4ccc5ncccc5c4)c3n2)cn1 [PF04217903] (partner dose 5 µM)	71.6	21.8	80.1	36.3	39.6	55.8	36.2	81.1	8.07	92.9	16.8	49.4	80.6	98.7	84.5	56.9	79.6	68.7	19.4	74.5
C[C@@H](N)c1ccc(C(=O)Nc2ccnc3[nH]ccc23)cc1 + CC(C)C[C@H](NC(=O)[C@H](Cc1ccccc1)NC(=O)c1cnccn1)B(O)O [Bortezomib] (partner dose 0.005 µM)	1.16	8.5	8.25	0.935	9.69	17.4	2.02	8.64	2.65	4.67	17.8	26.7	19.5	19.5	45.7	40.9	24.6	13.9	14.4	19.3
Cn1sc(=O)n(Cc2ccccc2)c1=O + CO[C@@H]1[C@H](N(C)C(=O)c2ccccc2)C[C@H]2O[C@]1(C)n1c3ccccc3c3c4c(c5c6ccccc6n2c5c31)C(=O)NC4 [Midostaurin] (partner dose 0.4 µM)	68	82.2	52.5	67.9	69.7	85.5	87.6	104	52.4	327	48.6	64.7	95.7	54.7	72.9	68.1	66	68.6	49.7	82.7
CCCCCCCCCCCCCCCCCCOP(=O)([O-])OC1CC[N+](C)(C)CC1 [Perifosine] + NC(=O)Nc1cc(-c2cccc(F)c2)sc1C(=O)N[C@H]1CCCNC1 [AZD7762] (partner dose 0.1 µM)	99.6	97.3	75.2	64	96.2	102	133	89.1	27.6	116	23.2	72.1	86.3	96.2	125	86.9	81.7	72.2	53.5	79
C[C@@H](N)c1ccc(C(=O)Nc2ccnc3[nH]ccc23)cc1 + Cn1c(Nc2ccc(C(F)(F)F)cc2)nc2cc(Oc3ccnc(-c4ncc(C(F)(F)F)[nH]4)c3)ccc21 [CHIR265] (partner dose 0.4 µM)	23.5	48.5	81.5	21.2	101	58.7	34.4	70.2	19	36.6	22.2	58.2	52.9	38.9	59.1	41.1	59.8	53.9	39.4	47.4
CCCCCCCCCCCCCCCCCCOP(=O)([O-])OC1CC[N+](C)(C)CC1 [Perifosine] + C[C@]1(c2nc3c(C(N)=O)cccc3[nH]2)CCCN1 [Veliparib] (partner dose 7 µM)	103	90.4	100	74.7	66.4	89.5	95.4	108	51.4	103	64.9	87.7	84.8	93.8	99.9	55.9	85.3	90.8	85.3	90.1
CCCCCCCCCCCCCCCCCCOP(=O)([O-])OC1CC[N+](C)(C)CC1 [Perifosine] + COc1cc2c(Oc3ccc4[nH]c(C)cc4c3F)ncnc2cc1OCCCN1CCCC1 [cediranib] (partner dose 2 µM)	96.3	110	109	108	70.5	97.6	107	97.3	27.3	94.4	105	85.9	86.6	91.1	99.3	96.5	103	111	94.7	84.5
Cn1sc(=O)n(Cc2ccccc2)c1=O + Clc1ccc(Nc2nnc(Cc3ccncc3)c3ccccc23)cc1 [vatalanib] (partner dose 10 µM)	81.9	81.2	78.5	103	57.5	64	84	80.9	66.4	95	48.3	82.2	79.5	49.6	69.8	72.8	75.1	89.1	91.4	65.8
C[C@@H](N)c1ccc(C(=O)Nc2ccnc3[nH]ccc23)cc1 + Cc1ccc(NC(=O)c2cccc(N(C)C)c2)cc1NC(=O)c1ccc(O)cc1 [ZM336372] (partner dose 10 µM)	86.2	90	85.4	101	88.4	72.3	53.6	99	60.1	68.5	80.2	98.5	81.1	62.9	65.7	84.8	84.5	68.3	59.8	84.8
CCCCCCCCCCCCCCCCCCOP(=O)([O-])OC1CC[N+](C)(C)CC1 [Perifosine] + CNC(=O)c1cc(Oc2ccc(NC(=O)Nc3ccc(Cl)c(C(F)(F)F)c3)cc2)ccn1 [sorafenib] (partner dose 2 µM)	92	68.7	115	82.4	105	89.2	106	92.6	51.6	117	67.5	81.8	91.4	94.3	87.3	89.4	101	103	94	86.8
CCCCCCCCCCCCCCCCCCOP(=O)([O-])OC1CC[N+](C)(C)CC1 [Perifosine] + Cc1cc(N2CCOCC2)cc2[nH]c(-c3c(NC[C@@H](O)c4cccc(Cl)c4)cc[nH]c3=O)nc12 [BMS536924] (partner dose 1 µM)	101	110	94.7	93.6	89.7	99.6	130	80.5	29	112	51.1	67.4	88	111	99.7	92.8	129	103	66.5	74.9
CCCCCCCCCCCCCCCCCCOP(=O)([O-])OC1CC[N+](C)(C)CC1 [Perifosine] + C#Cc1cccc(Nc2ncnc3cc(OCCOC)c(OCCOC)cc23)c1 [erlotinib] (partner dose 4 µM)	64.5	49.5	93.4	63	92	73.9	69.7	58.2	41.2	69.1	49.1	78.1	59	55.1	100	52.6	63.1	89.9	71.3	61.1

— the supplement of paper PMC4604168 (melanoma cell lines)
